{"source": "PubChem BioAssay AID588855", "about": "(National Center for Advancing Translational Sciences (NCATS), 2011)", "note": "The campaign covered roughly 410,000 compounds. About 5,000 (1.2%) were called active. The inconclusive results got no clear call from the source; some entries with a clear call stand among them for comparison. Calls come from the whole dose curve; as a rule, active = well fitted inhibition curve with a large enough effect; inconclusive = small, poorly fitted or top-dose-only effect; inactive = no such curve, though single readings can be large or run the other way. A potency beside an inconclusive call is a rough fit, not a confirmed value. Potency is the fitted concentration of half-maximal effect; tags give direction and shape of the fitted curve."}
{"assay": "qHTS for Inhibitors of TGF-b; note: nearly all actives have a fitted effect of over 65% in size", "settings": "HepG2 CAGA-GFP TGF-b/SMAD3 reporter, GFP fluorescence, 18 h, TGF-beta stimulated, 500 pg/mL final; series mostly up to 46.1 µM", "method_in_brief": "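Per well, imaged GFP fluorescence of HEPG2 CAGA-GFP cells gives the signal; cells get compound, then TGF-beta (500 pg/mL final), 18 h at 37 degrees C; %Activity versus -TGF-beta and +DMSO controls.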"}
{"smiles": "O=S(=O)(NCCCCNS(=O)(=O)c1c(F)cccc1F)c1ccc2c(c1)OCCO2", "Potency": "inactive"}
{"smiles": "Cc1c(C(=O)N2CCOCC2)oc2ccc(S(=O)(=O)N3CCCC3)cc12", "Potency": "inactive"}
{"smiles": "Cc1ccc(C(C)C)c(OCC#CCN2CCOCC2)c1", "Potency": "inactive"}
{"smiles": "CCOc1cc(/C=C(/NC(C)=O)C(=O)O)cc(Cl)c1OCc1ccc(Br)cc1", "Potency": "inactive"}
{"smiles": "COc1ccc(CCN(C)Cc2c(O)ccc3cc(Br)ccc23)cc1OC", "Potency": "inconclusive: 35.5 µM [inhibitor, single point]"}
{"smiles": "CCO/C=C/C(O)(CNC(=O)c1ccc(C(C)(C)C)cc1)C(F)(F)F", "note": "(configuration not stated)", "Potency": "inactive"}
{"smiles": "COc1ccc(NC(=O)c2c(NCc3cccs3)sc3c2CCC(C)C3)c(OC)c1", "note": "(configuration not stated)", "Potency": "inconclusive: 17.8 µM [inhibitor, single point]"}
{"smiles": "C[C@@H]1CN([C@H](C)CO)C(=O)Cc2cc(NC(=O)CCC(F)(F)F)ccc2O[C@@H]1CN(C)C(=O)Nc1ccccc1", "Potency": "inconclusive: 0.794 µM [inhibitor, partial curve, poor fit]"}
{"smiles": "COc1ccc(S(=O)(=O)N2CCCCC2)cc1NC(=O)c1cccc(S(=O)(=O)N2CC(C)OC(C)C2)c1", "note": "(configuration not stated)", "Potency": "inactive"}
{"smiles": "O=S(=O)(/N=C(/Nc1cc(N2CCOCC2)ncn1)c1ccc(F)cc1)c1ccccc1", "Potency": "inconclusive: 35.5 µM [inhibitor, partial curve, poor fit]"}
{"smiles": "C[C@H](CO)N1C[C@H](C)[C@@H](CN(C)Cc2ccc(-c3ccccc3)cc2)Oc2c(NC(=O)Cc3ccccc3)cccc2C1=O", "Potency": "inconclusive: 35.5 µM [inhibitor, partial curve, poor fit]"}
{"smiles": "Cc1ccc(-n2ncc(C(=O)N3CCN(c4cc(Cl)ccc4C)CC3)c2C2CCN(C(=O)OC(C)(C)C)CC2)cc1", "Potency": "inactive"}
{"smiles": "COC(=O)c1ccc(Cl)cc1NC(=O)Nc1nnc(N2CCCC2)s1", "Potency": "inconclusive: 6.31 µM [inhibitor, single point]"}
{"smiles": "CC1NC(=S)N(C2CCCCC2)C1=O", "note": "(configuration not stated)", "Potency": "inactive"}
{"smiles": "CC1CCN(C(=O)CSc2nc(C(C)C)nc3c2c(=O)n(C)c(=O)n3C)CC1", "Potency": "inactive"}
{"smiles": "Cc1cc(C)c(C(=O)Cn2nc(C(=O)O)c3ccccc3c2=O)cc1C", "Potency": "inactive"}
{"smiles": "CC(C)(C)c1ccc(C(=O)N/C(=C\\c2ccco2)C(=O)Nc2ccccc2C(=O)O)cc1", "Potency": "inactive"}
{"smiles": "Cc1ccc(NC(=O)c2ccc(F)cc2)cc1S(=O)(=O)N1CCCCCC1", "Potency": "inconclusive: 15.8 µM [inhibitor, single point]"}
{"smiles": "CS(=O)(=O)c1ccc(C(=O)NCCN2C(=O)S/C(=C\\c3cccnc3)C2=O)cc1[N+](=O)[O-]", "Potency": "active: 14.1 µM"}
{"smiles": "CC1CC(C)CN(S(=O)(=O)c2ccc3c(c2)CC(C)N3C(=O)C2CCC2)C1", "note": "(configuration not stated)", "Potency": "inconclusive: 35.5 µM [inhibitor, single point]"}
{"smiles": "Cc1c(Cl)cccc1-c1ccc(CNCCSc2nnnn2-c2ccccc2)o1", "Potency": "inconclusive: 35.5 µM [inhibitor, single point]"}
{"smiles": "COc1ccccc1C(=O)Nc1ccc2nc(SCC(=O)N(C)c3ccccc3)sc2c1", "Potency": "inactive"}
{"smiles": "CCS(=O)(=O)c1ncc(N(Cc2ccccc2)Cc2ccco2)c(C(=O)Nc2cccc(Cl)c2C)n1", "Potency": "inactive"}
{"smiles": "CCCCCC(=O)Nc1ccccc1N1CCN(c2ccccc2)CC1", "Potency": "inactive"}
{"smiles": "CCOc1ccc(NC(=O)c2c(Nc3ccccc3C)sc(C(=O)c3ccccc3)c2N)cc1", "Potency": "inconclusive: 14.1 µM [inhibitor, single point]"}
{"smiles": "O=C(CN1C(=O)C2(SCC(=O)N2c2cccc(Cl)c2)c2ccccc21)NCCc1ccccc1", "note": "(configuration not stated)", "Potency": "active: 11.2 µM"}
{"smiles": "Cc1ccccc1Oc1nc2c(C)cccn2c(=O)c1/C=C(\\C#N)C(=O)NC1CCS(=O)(=O)C1", "note": "(configuration not stated)", "Potency": "inconclusive: 22.4 µM [inhibitor, single point]"}
{"smiles": "O=C(Nc1ccccc1N1CCN(c2ccccc2)CC1)c1ccccc1F", "Potency": "inactive"}
{"smiles": "Cc1cc(Cl)ccc1N=c1ssnc1Cl", "Potency": "active: 7.94 µM"}
{"smiles": "Cc1ccccc1NC(=O)c1cccc(S(=O)(=O)Oc2ccc([N+](=O)[O-])cc2)c1", "Potency": "inactive"}
{"smiles": "Cc1ccc2oc(=O)c3cnn(CC(=O)N4CCN(c5ccc(F)cc5)CC4)c3c2c1", "Potency": "inactive"}
{"smiles": "COc1ccc([N+](=O)[O-])cc1NC(=S)NC(NC(=O)C(c1ccccc1)c1ccccc1)C(Cl)(Cl)Cl", "note": "(configuration not stated)", "Potency": "active: 4.47 µM"}
{"smiles": "Cc1cc(OCC(=O)Nc2ccncc2)cc(C)c1Cl", "Potency": "inconclusive: 6.31 µM [inhibitor, partial curve, poor fit]"}
{"smiles": "CC(C)Oc1ccccc1-c1nc(SCC(=O)c2ccc(F)cc2)n[nH]1", "Potency": "inactive"}
{"smiles": "CC1Cc2ccccc2N1Cc1nc2cc(Cl)ccc2c(=O)[nH]1", "note": "(configuration not stated)", "Potency": "inconclusive: 3.55 µM [inhibitor, full curve, poor fit]"}
{"smiles": "Cc1cccc(OCCC(=O)NCC(=O)Nc2cccc(C)c2C)c1", "Potency": "inconclusive: 6.31 µM [inhibitor, single point]"}
{"smiles": "Cc1ccc(C(=O)Nc2ccncc2)cc1S(=O)(=O)N1CCOCC1", "Potency": "inactive"}
{"smiles": "O=C(O)c1cc(S(=O)(=O)N2CCN(c3ccccn3)CC2)ccc1Cl", "Potency": "inconclusive: 5.62 µM [inhibitor, single point]"}
{"smiles": "Cc1ccc(S(=O)(=O)N2CCCCC2)cc1C(=O)N(CCc1ccccc1)Cc1ccccc1", "Potency": "inconclusive: 3.55 µM [inhibitor, full curve]"}
{"smiles": "CCOc1ccc(NC(=O)CSc2cn(CCNC(=O)c3ccccc3F)c3ccccc23)cc1", "Potency": "inconclusive: 22.4 µM [inhibitor, single point]"}
{"smiles": "O=C(COC(=O)c1c2c(nc3ccccc13)CCN(Cc1ccccc1)C2)Nc1c(F)cccc1F", "Potency": "inactive"}
{"smiles": "CCc1ccccc1NC(=O)CSc1nncn2c1cc1oc(C)cc12", "Potency": "inconclusive: 11.2 µM [inhibitor, partial curve, poor fit]"}
{"smiles": "O=C1[C@H]2[C@@H](c3ccc(Cl)cc3)N3C(=O)N(c4cccc(Cl)c4)C(=O)[C@@]3(Cc3ccccc3)[C@H]2C(=O)N1C1CCCCC1", "Potency": "inconclusive: 35.5 µM [inhibitor, single point]"}
{"smiles": "O=C(Cn1cnc2c(oc3ccccc32)c1=O)NCC1CCCO1", "note": "(configuration not stated)", "Potency": "inactive"}
{"smiles": "Oc1ccc2cccnc2c1", "Potency": "inconclusive: 3.55 µM [inhibitor, single point]"}
{"smiles": "Cc1cc(/C=C2\\NC(=S)N(C)C2=O)ccc1N1CCCC1", "Potency": "inactive"}
{"smiles": "COc1ccc(-c2nnc(N3CCOCC3)c3ccccc23)cc1", "Potency": "inactive"}
{"smiles": "CCOc1ccc(CCNC(=O)c2ccc(OCc3c(C)noc3C)cc2)cc1OCC", "Potency": "inactive"}
{"smiles": "CC1CCCCN1C(=O)CSc1ccc(-c2ccc(F)cc2)nn1", "note": "(configuration not stated)", "Potency": "inactive"}
{"smiles": "O=C(c1ccc(F)cc1)c1cn(Cc2ccccc2F)c2cc3c(cc2c1=O)OCCO3", "Potency": "inconclusive: 35.5 µM [inhibitor, single point]"}
{"smiles": "N#Cc1ccccc1S(=O)(=O)N1CCN(CC(O)COc2ccccc2F)CC1", "note": "(configuration not stated)", "Potency": "inactive"}
{"smiles": "Cc1noc(C)c1CSCC(=O)Nc1nc2ccc(Oc3ccccc3)cc2s1", "Potency": "inconclusive: 35.5 µM [inhibitor, single point]"}
{"smiles": "COc1ccc(C2C(C(C)=O)=C(O)C(=O)N2c2ccc(F)cc2)cc1", "note": "(configuration not stated)", "Potency": "inactive"}
{"smiles": "Nc1nonc1OCCN1CCN(c2ccc([N+](=O)[O-])c3cccnc23)CC1", "Potency": "inactive"}
{"smiles": "CCOc1ccc(-c2c[n+]3c(n2-c2ccccc2)CCCCC3)cc1", "Potency": "inconclusive: 7.94 µM [inhibitor, partial curve, poor fit]"}
{"smiles": "CCc1nc2ccc(C(=O)N3CCN(c4cc(Cl)ccc4C)CC3)cc2nc1CC", "Potency": "inconclusive: 35.5 µM [inhibitor, single point]"}
{"smiles": "CN(Cc1ccccc1)C(CNS(=O)(=O)c1ccccc1)c1ccccc1", "note": "(configuration not stated)", "Potency": "inconclusive: 22.4 µM [inhibitor, single point]"}
{"smiles": "CCN(CC)CCN1C(=O)c2cccc3cc(N)cc(c23)C1=O", "Potency": "inconclusive: 12.6 µM [inhibitor, single point]"}
{"smiles": "O=C(Cc1ccccc1F)OCN1C(=O)c2ccccc2C1=O", "Potency": "inconclusive: 12.6 µM [inhibitor, partial curve, poor fit]"}
{"smiles": "COc1ccc(OC)c(C2=NS(=O)(=O)N(C)C(C(=O)NCc3cccs3)=C2)c1", "Potency": "inactive"}
{"smiles": "Cc1ccc(S(=O)(=O)NCC2CCC(C(=O)NCCc3ccccc3)CC2)cc1", "note": "(configuration not stated)", "Potency": "inconclusive: 2.82 µM [inhibitor, partial curve, poor fit]"}
{"smiles": "COc1ccccc1NC(=O)CN1C(=O)COc2ccc(S(=O)(=O)N3CCCCCC3)cc21", "Potency": "inconclusive: 15.8 µM [inhibitor, single point]"}
{"smiles": "O=C(NCc1cccs1)C1CC(c2ccc(Cl)cc2)=NO1", "note": "(configuration not stated)", "Potency": "inconclusive: 35.5 µM [inhibitor, single point]"}
{"smiles": "O=C(CSc1nnc(-c2ccc(O)cc2)o1)N1CCOCC1", "Potency": "inactive"}
{"smiles": "CCN(c1cccc(C)c1)S(=O)(=O)c1cc(Br)cc2c1N(C(C)=O)C(C)C2", "note": "(configuration not stated)", "Potency": "inconclusive: 10 µM [inhibitor, single point]"}
{"smiles": "COc1cccc(CNC(=O)CN2CCC(c3nc4ccc(C)cc4[nH]3)CC2)c1", "Potency": "inactive"}
{"smiles": "O=C(Nc1ccc(Cc2ccncc2)cc1)c1ccc([N+](=O)[O-])o1", "Potency": "active: 15.8 µM"}
{"smiles": "Cc1ccc(C)c(NC(=S)NNC(=O)c2csc3c2CCC(C)C3)c1", "note": "(configuration not stated)", "Potency": "inconclusive: 11.2 µM [inhibitor, partial curve, poor fit]"}
{"smiles": "C=C(C)c1ccc(C(C)(C)NC(=O)NCc2ccco2)cc1", "Potency": "inactive"}
{"smiles": "COc1ccc(NC(=O)c2c(C)oc3ccc(O)c(CN4CCC(C)CC4)c23)cc1Cl", "Potency": "active: 12.6 µM"}
{"smiles": "COc1ccc2[nH]c3c(c2c1)CCNC3C1CC=C(C)CC1", "note": "(configuration not stated)", "Potency": "inconclusive: 15.8 µM [inhibitor, partial curve, poor fit]"}
{"smiles": "Nc1cccc(S(=O)(=O)NC2=NCCC2)c1", "Potency": "inactive"}
